Reference: PubChem BioAssay AID651820 (National Center for Advancing Translational Sciences (NCATS), 2012)
“And” between values parts separate entries of the source, which are not always exact repeats. Identical values can stand only once. The whole screen tested about 340,000 compounds, of which about 12,000 (3.5%) were called active. This list was built around the results that the source calls inconclusive (neither active nor inactive); the mix of calls is not that of the screen. Calls follow the shape of the dose curve; as a rule, active = well fitted inhibition curve with a large enough effect; inconclusive = small, poorly fitted or top-dose-only effect, or another doubt; inactive = no such curve, though single readings can be large or run the other way. Potencies beside an inconclusive call are fits to weak or partial responses and may not hold up.

experiment: qHTS Assay for Inhibitors of Hepatitis C Virus (HCV); conditions: Huh7.5.1 HCVcc-Cre (HCVcc is cell-culture hepatitis C virus) infection, luciferase reporter, 44 h; series mostly up to 41.8 µM
In short: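 HCVcc-Cre virus at an moi near 0.5 was added right after compound to cells cultured 4 h from seeding (1,000 cells/well). Luciferase activity was determined 44 h later, 15 min after substrate addition at RT.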
Potency is read from the fitted curve at half-maximal effect; tags tell the direction and shape of the fitted curve.

SMILES | Potency
CC(=O)c1cccc(-n2c(CCC(=O)O)ccc2-c2cccs2)c1 | inactive
COc1cc(OC)c(C2=NOC(C(=O)NCCc3ccccc3)C2)cc1Cl (stereo not given) | inconclusive: 11.2 µM [inhibitor, single point]
COc1ccc(NC(=S)N2CCC(N(C)CC3CCCO3)CC2)cc1Cl (stereo not given) | inactive
CCOC(=O)c1[nH]c2ccc(OCC)cc2c1NC(=O)CN1CCN(c2ccccn2)CC1 | inconclusive: 31.6 µM [inhibitor, single point]
COc1ccc2c(c1)oc(=O)c1c3ccccc3[nH]c21 | active: 3.55 µM
C#CCOC(=O)Nc1cccn(Cc2c(Cl)cccc2Cl)c1=O | inconclusive: 22.4 µM [inhibitor, single point]
CCc1ccc(CN(C)C(=O)c2cc(COc3cccc(C(F)(F)F)c3)on2)nc1 | inconclusive: 22.4 µM [inhibitor, single point]
Clc1ccc(-c2csc3ncnc(NCCN4CCOCC4)c23)cc1 | inconclusive: 28.2 µM [inhibitor, single point]
O=C(COC(=O)/C=C/c1cccc(C(F)(F)F)c1)NCCN1C(=O)CSC1=O | inactive
C/C(=N\NC(=O)CNC(=O)c1cccs1)c1ccc(Cl)c(Cl)c1 | inconclusive: 10 µM [inhibitor, partial curve]
CCOc1ccc(NS(=O)(=O)c2ccc(C(=O)N(C)CC(=O)Nc3ccc(C)cc3)cc2)cc1 | inactive
CC1CCN(CCCNC(=O)c2cn(C)c3ccc(S(=O)(=O)N4CCCC4)cc3c2=O)CC1 | inactive
CN(C)C1=NC[C@H](Cc2ccccc2)N1CC1CCCCC1 | inconclusive: 7.94 µM [inhibitor, partial curve]
COCC(=O)NCCc1nc(-c2ccccc2)cs1 | inactive
COc1cc(/C=C/c2ccc(O)cc2)cc(OC)c1 | active: 12.6 µM
Cc1ccc(C(=O)Nc2ccccc2Oc2ccccc2)cc1[N+](=O)[O-] | inconclusive: 31.6 µM [inhibitor, single point]
Cc1ccc(/C=C2/Sc3ccccc3N(CC(=O)NCCCOC(C)C)C2=O)cc1 | inconclusive: 2.82 µM [inhibitor, full curve]
Cc1ccc(CNc2ccc(CNc3ncn[nH]3)cc2)cc1 | inconclusive: 0.501 µM [inhibitor, full curve, poor fit]
Cc1nn(C)c(C)c1CN(C)C(=O)c1cc2nc(-c3ccco3)cc(C(F)(F)F)n2n1 | inactive and inconclusive: 501 nM [inhibitor, full curve, poor fit]
Cc1ccnc(NC(=O)/C=C/c2cccs2)c1 | inconclusive: 6.31 µM [inhibitor, partial curve]
